According to the supplement of paper PMC4967469:
IC50 is the fitted dose that halves viability relative to control wells, and lower means more sensitive; a limit (>, <) means that the fit lies beyond the doses tested. AUC, from the same fit, is the share of area under the viability curve across the 256-fold dose range: 1 means no effect, lower means more sensitive.

Compound: N#CC[C@H](C1CCCC1)n1cc(-c2ncnc3[nH]ccc23)cn1 [Ruxolitinib]
Assay: Viability of human cancer cell lines after 72 h of drug (GDSC screen)
Procedure: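 Human cancer cell lines in 384-well plates, medium with 10% serum, drug for 72 h over a 256-fold dose range (nine 2-fold or five 4-fold steps up to the top dose). Adherent lines were fixed and stained with the nucleic acid dye Syto60, suspension lines read with resazurin; signal relative to control wells, capped at 0 and 100%. One two-parameter sigmoid per drug and line, fitted in a mixed model over all curves with the slope shared within a line.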

| Cell Line | AUC | IC50 |
| --- | --- | --- |
| SK-CO-1 (large intestine, adherent, top dose 5.24 µM) | 0.989 | > 5.24 µM |
| NCI-H1568 (lung adenocarcinoma, adherent, top dose 5.24 µM) | 0.971 | > 5.24 µM |
| RCC-JF (kidney, adherent, top dose 5.24 µM) | 0.979 | > 5.24 µM |
| NCI-H1688 (small cell lung carcinoma, adherent, top dose 5.24 µM) | 0.977 | > 5.24 µM |
| OE33 (oesophagus, adherent, top dose 5.24 µM) | 0.984 | > 5.24 µM |
| NCI-H1876 (small cell lung carcinoma, adherent, top dose 5.24 µM) | 0.987 | > 5.24 µM |
| ASH-3 (thyroid, adherent, top dose 5.24 µM) | 0.988 | > 5.24 µM |
| ALL-PO (lymphoblastic leukaemia, suspension, top dose 5.24 µM) | 0.955 | > 5.24 µM |
| Hs766T (pancreas, adherent, top dose 5.24 µM) | 0.979 | > 5.24 µM |
| ES-2 (ovary, adherent, top dose 5.24 µM) | 0.991 | > 5.24 µM |
| ESO26 (oesophagus, adherent, top dose 5.24 µM) | 0.981 | > 5.24 µM |
| TGW (neuroblastoma, adherent, top dose 5.24 µM) | 0.992 | > 5.24 µM |
| SK-N-AS (neuroblastoma, adherent, top dose 5.24 µM) | 0.979 | > 5.24 µM |
| CaR-1 (large intestine, adherent, top dose 5.24 µM) | 0.974 | > 5.24 µM |
| NCI-H1155 (large cell lung carcinoma, suspension, top dose 5.24 µM) | 0.992 | > 5.24 µM |
| VMRC-RCZ (kidney, adherent, top dose 5.24 µM) | 0.977 | > 5.24 µM |

| Cell Line | AUC | IC50 |
| --- | --- | --- |
| NCI-H2141 (small cell lung carcinoma, suspension, top dose 5.24 µM) | 0.952 | > 5.24 µM |
| SNU-407 (large intestine, adherent, top dose 5.24 µM) | 0.983 | > 5.24 µM |
| Detroit562 (head and neck, adherent, top dose 5.24 µM) | 0.988 | > 5.24 µM |
| H2461 (mesothelioma, adherent, top dose 5.24 µM) | 0.983 | > 5.24 µM |
| EC-GI-10 (oesophagus, adherent, top dose 5.24 µM) | 0.989 | > 5.24 µM |
| WM35 (melanoma, adherent, top dose 5.24 µM) | 0.982 | > 5.24 µM |
| NCI-H661 (large cell lung carcinoma, adherent, top dose 5.24 µM) | 0.978 | > 5.24 µM |
| NCI-H747 (large intestine, adherent, top dose 5.24 µM) | 0.979 | > 5.24 µM |
| LS-123 (large intestine, adherent, top dose 5.24 µM) | 0.96 | > 5.24 µM |
| TE-6 (oesophagus, adherent, top dose 5.24 µM) | 0.986 | > 5.24 µM |
| BCPAP (thyroid, adherent, top dose 5.24 µM) | 0.985 | > 5.24 µM |
| CADO-ES1 (Ewing sarcoma, suspension, top dose 5.24 µM) | 0.983 | > 5.24 µM |
| NCI-H650 (lung adenocarcinoma, adherent, top dose 5.24 µM) | 0.968 | > 5.24 µM |
| ACHN (kidney, adherent, top dose 5.24 µM) | 0.977 | > 5.24 µM |
| Hs-578-T (breast, adherent, top dose 5.24 µM) | 0.987 | > 5.24 µM |
| FU97 (stomach, adherent, top dose 5.24 µM) | 0.983 | > 5.24 µM |
